Article PMC12040169 (PLOS Biology, 2025)
The other results are listed elsewhere or left out.

The compounds below were run on T1, C. trachomatis L2/434/Bu expressing GFP (CTL2-GFP). Settings: total inclusion area; 28.5 h, 10 µM; inhibitor.
T1 construct: L2/434/Bu GFP intracellular growth in HeLa cells
Set-up: species or system HeLa; C. trachomatis total inclusion area by high-content imaging, normalised to DMSO
Summary of the method: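 Post-fluorescence-read fixation, DNA staining with Hoechst and high-content imaging; GFP inclusion area and number per well, and nuclei counts, used as proxies for bacterial growth and host viability.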

SMILES | % of control remaining
O=C(CCN1CCCCC1)Nc1ccc2c(=O)n3c(nc2c1)/C(=C/c1ccccc1)CC3 [CBK017786] | 1.845
CC(NC(=O)C1CCN(Cc2ncc[nH]2)CC1)c1ccc(F)cc1 (stereo not shown) [CBK148037] | 116.194
Cc1ccc(-n2c3nc(=O)[nH]c(=O)c-3cc3c(Cl)cccc32)c(C)c1 [CBK287965] | 74.011
CCCCN(C)c1nccnc1-c1ccc(CO)cc1 [CBK037666] | 96.1881
COc1ccc([C@@]23CC[C@@H](NC(=O)Nc4cccc(S(=O)(=O)C(F)(F)F)c4)C[C@@H]2N(C)CC3)cc1OC [CBK051275T] | 30.751
COc1ccc(CSc2nc3sc4c(c3c(=O)n2Cc2ccccc2)CCN(Cc2ccccc2)C4)cc1 [CBK263714] | 95.3426
CCSc1ccnc2c1c(=O)n(C)c(=O)n2C [CBK287749] | 93.3795
CCOC(=O)C(N)CSC1CC(=O)N(c2ccc(Br)cc2)C1=O (stereo not shown) [CBK017250C] | 7.126
O=c1ccc(-c2cccs2)nn1C[C@H]1CCCN1 [CBK284313] | 81.2259
CC(=O)NC1(c2ccc(F)cc2)CCN(C(=O)C2CCCCC2)CC1 [CBK283546] | 94.7394
CN1CCN(C(=O)c2ccc(-c3ccc(N4CCOCC4)cc3)nc2N(C)C)CC1 [CBK106114] | 114.412
COC(=O)c1ccsc1NS(=O)(=O)c1ccccc1 [CBK026667] | 91.2251
CNC(=O)CSc1nccnc1N1CCCC1 [CBK107748] | 84.612
O=C(O)CCCCN1C(=O)c2ccccc2S1(=O)=O [CBK287189] | 97.6112
COc1cccc(C2=CC(c3ccccc3Cl)N3N=NNC3=N2)c1 (stereo not shown) [CBK287943] | 107.849
COc1ccc(-c2nnc([C@H]3CCN(Cc4ccccn4)C3)o2)cc1 [CBK289401] | 107.364
CCCNC(=O)c1ccc(C)c(NC(=O)NC2CCOC2)c1 (stereo not shown) [CBK306794] | 78.4457
CC1(C)CC(NC(=O)C2CCCN(S(C)(=O)=O)C2)c2ccccc2O1 (stereo not shown) [CBK304365] | 61.1054
CC(=O)Nc1ccc(S(=O)(=O)Nc2ccnc(N3CCNCC3)n2)cc1 [CBK000363C] | 76.9498
c1cnc2[nH]c(C3CC3)c(CN3CCN4CCCCC4C3)c2c1 (stereo not shown) [CBK285313] | 85.3579
Cc1cc(C=O)c(C)n1-c1ccc(Oc2ccc([N+](=O)[O-])cn2)cc1 [CBK264167] | 91.8779
OCCn1ncc2c(NCc3cccnc3-n3cccn3)ncnc21 [CBK305977] | 80.7752
